Experimental data: the supplement of paper PMC10600219
Counter-ions that a name gives are not always drawn. In all, about 2,800 compounds were measured (“cell viability relative to vehicle”: median about 0.98, lowest 2% from about 0.45 on). The list shows a part of the results.

Test system: NCI-H2228 alectinib-DTP
Assay: cell viability relative to vehicle (fraction of vehicle); NCI-H2228 is an ALK-positive lung cancer line and DTP means drug-tolerant persister; higher = less growth inhibition
Conditions: 100 nM; treatment time 6 days
Procedure, shortened: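 Values give cell viability as a fraction of vehicle-treated cells. Parental and drug-tolerant persister NCI-H2228 cells (persisters made with 1000 nM of a targeted drug for 13 days) were exposed in 384-well plates to the 3114-agent TargetMol anti-cancer compound library at 100 nM, with DMSO as vehicle. ATP was then read after 6 days by the CellTiter-Glo 3D Cell Viability Assay.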

In order of falling cell viability:
1. CCCCCC/C=C\CCCCCCCc1cccc(O)c1C(=O)O [Ginkgolic acid C15:1]  1.24
2. NC(=O)c1ncn([C@@H]2O[C@H](CO)[C@@H](O)[C@H]2O)n1 [Ribavirin]  1.2
3. N=C(N)N [Guanidine hydrochloride]  1.19
4. O=C(Nc1ccc(O)cc1)c1ccccc1O [Osalmid]  1.18
5. CCN(CC)CCOC(=O)C(c1ccccc1)C1CCCCC1 (stereo not given) [Drofenine hydrochloride]  1.17
6. Cc1cccc(-c2[nH]ncc2-c2ccnc3ccccc23)n1  1.17
7. CN1CCC(=C2c3ccccc3CC(=O)c3sccc32)CC1 [Ketotifen fumarate]  1.17
8. C#C[C@]1(O)CC[C@H]2[C@@H]3CCc4cc(OC5CCCC5)ccc4[C@H]3CC[C@@]21C [Quinestrol]  1.16
9. COc1ccc(S(=O)(=O)NCc2ccc(C(=O)NCCc3ccc(Cl)cn3)cc2)cc1  1.14
10. COc1ccccc1-c1cc(Nc2cccc(CS(N)(=O)=O)c2)ncn1  1.13
11. COc1cc2ncnc(Oc3cccc(NC(=O)Nc4cc(C(C)(C)C(F)(F)F)on4)c3)c2cc1OC  1.12
12. Cn1cc(C(=O)Nc2ccc3c(c2)OCCO3)c2ccccc2c1=O  1.12
13. Cc1cc(N2CCCCC2)nc2ccccc12  1.12
14. CN(C)CCC=C1c2ccccc2CCc2ccccc21 [Amitriptyline hydrochloride]  1.1
15. CNCC[C@H](Oc1cccc2ccccc12)c1cccs1 [Duloxetine hydrochloride]  1.1
16. COc1ccc(-c2cnc3c(-c4cccc5ncccc45)cnn3c2)cc1  1.09
17. CC(C)[C@H](CO)Nc1nc(Nc2cccc(Cl)c2)c2ncn(C(C)C)c2n1 [Purvalanol A]  1.09
18. O=C(O)c1ccc2c(c1)C(=O)c1ccccc1C2=O  1.08
19. CNS(=O)(=O)Cc1ccc2[nH]cc(CCN(C)C)c2c1 [Sumatriptan succinate]  1.08
20. Cc1[nH]c(=O)c(C#N)cc1-c1ccncc1 [Milrinone]  1.08
21. O=C(NCc1ccncc1)C12CC3CC(C1)CC(c1ccc(Cl)cc1)(C3)C2  1.07
22. Cn1c(=O)c2[nH]cnc2n(C)c1=O [Aminophylline]  1.07
23. CCOc1ccc2c(c1)C(C)=CC(C)(C)N2 [Ethoxyquin]  1.06
24. N#Cc1ccc2[nH]cc(CCCCN3CCN(c4ccc5oc(C(N)=O)cc5c4)CC3)c2c1 [Vilazodone HCl]  1.06
25. O=C1NCCSc2c1sc1ccc(O)cc21  1.06
26. O=S(=O)(c1cccc2c(I)cccc12)N1CCCNCC1 [ML-7 hydrochloride]  1.06
27. COc1ccc2[nH]c(C(=O)N3CCC(CC(C)(C)O)CC3)cc2c1  1.05
28. CNC(=O)c1ccc(-c2cnc3ncc(Cc4ccc5ncccc5c4)n3n2)cc1F [Capmatinib]  1.04
29. COc1cc(Cc2cnc(N)nc2N)cc(OC)c1OC [Trimethoprim]  1.04
30. CNC(=O)c1ccc(-c2cnc3ncc(Cc4ccc5ncccc5c4)n3n2)cc1F [Capmatinib 2HCl]  1.03
31. CC(=O)c1cc([N+](=O)[O-])c(Sc2cccc(Cl)c2Cl)s1  1.03
32. FC(F)(F)c1ccc(CNc2ccc(Cc3c[nH]c4ncc(Cl)cc34)cn2)cn1 [Pexidartinib]  1.03
33. CCCN(CCC)C(=O)C(CCC(=O)O)NC(=O)c1ccccc1 (stereo not given) [Proglumide]  1.03
34. CC1(C)CC(=O)C2=C(C1)NC(=S)NC2c1cccc(O)c1 (stereo not given) [Dimethylenastron]  1.02
35. CC(=O)NCCc1c[nH]c2ccc(O)cc12 [N-Acetyl-5-hydroxytryptamine]  1.02
36. CCc1cc2c(=O)c(-c3nc4ccccc4s3)coc2c(CN2CCCCC2)c1O  1.01
37. NS(=O)(=O)c1cc2c(cc1Cl)N=CNS2(=O)=O [Chlorothiazide]  1.01
38. COc1cc(/C=C/C(=O)N2CCC=CC2=O)cc(OC)c1OC [Piperlongumine]  1.01
39. COc1ccccc1N1CCN(CC(O)COc2cccc3ccccc23)CC1 (stereo not given) [Naftopidil]  1.01
40. CS(=O)(=O)c1ccc(C2=C(c3ccccc3)C(=O)OC2)cc1 [Rofecoxib]  1
41. O=c1ccc2ccc(O)c(O)c2o1 [Daphnetin]  1
42. O=C(COc1ccc(Cl)cc1)NC1CCC(NC(=O)COc2ccc(Cl)cc2)CC1 (stereo not given)  0.998
43. O=C(O)CC[C@H]1CC[C@@](c2cc(F)ccc2F)(S(=O)(=O)c2ccc(Cl)cc2)CC1  0.991
44. Cc1ccc(S(=O)(=O)n2c(N)nc3ccccc32)cc1  0.986
45. O=C(Nc1ccccc1)c1ccccc1O [Salicylanilide]  0.984
46. OCCNC1CCCc2c1[nH]c1ccc(-c3ccccc3)cc21 (stereo not given)  0.984
47. O=c1c(O)c(-c2ccc(O)c(O)c2)oc2cc(O)ccc12 [Fisetin]  0.98
48. CC(C)(C)c1ccc(CN2CCN(C(c3ccccc3)c3ccc(Cl)cc3)CC2)cc1 (stereo not given) [Buclizine HCl]  0.98
49. COc1ccc(CCNCc2ccc(OCc3ccc(Cl)nc3)c(OC)c2)cc1OC [SBE 13 hydrochloride]  0.978
50. CC(C)(Sc1cc(C(C)(C)C)c(O)c(C(C)(C)C)c1)Sc1cc(C(C)(C)C)c(O)c(C(C)(C)C)c1 [Probucol]  0.972
51. C=C[C@H]1CN2CC[C@H]1C[C@@H]2[C@@H](O)c1ccnc2ccc(OC)cc12 [Quinidine hydrochloride]  0.969
52. C[C@@H]([C@H](C)O)[C@H](N)C(=O)O [(4S)-4-Hydroxy-L-isoleucine]  0.961
53. CC[C@H](CC[C@@H](C)[C@H]1CC[C@H]2[C@@H]3CC=C4C[C@@H](O)CC[C@]4(C)[C@H]3CC[C@]12C)C(C)C [Beta-Sitosterol]  0.958
54. CCCOc1ccc2c(c1)CC[C@@H]1[C@@H]2CC[C@]2(C)[C@@H](OC)CC[C@@H]12 [Promestriene]  0.952
55. Cn1c(=O)cnn(CCCCN2CCN(c3ncccn3)CC2)c1=O [Eptapirone]  0.95
56. COc1cc(OC)c(C(=O)CCCN2CCCC2)c(OC)c1 [Buflomedil hydrochloride]  0.942
57. COc1ccc(-c2nc3cc(C4=NNC(=O)CC4C)ccc3[nH]2)cc1 (stereo not given) [Pimobendan]  0.931
58. CCCNC(=O)[C@H]1O[C@@H]1C(=O)N[C@H](C(=O)N1CCC[C@H]1C(=O)OC)[C@@H](C)CC [CA-074 methyl ester]  0.931
59. OCC1=C[C@@H](O)[C@@H]2C=CO[C@@H](O[C@@H]3O[C@H](CO)[C@@H](O)[C@H](O)[C@H]3O)[C@H]12 [Aucubin]  0.929
60. Cc1cc(C2CCCCC2)n(O)c(=O)c1 [Ciclopirox]  0.92
61. COc1cc2c(cc1OC)CN(CCc1ccc(NC(=O)c3cc(OC)c(OC)cc3NC(=O)c3cnc4ccccc4c3)cc1)CC2 [Tariquidar]  0.919
62. COc1cc2c(cc1OC)C(=O)C(CC1CCN(Cc3ccccc3)CC1)C2 (stereo not given) [Donepezil HCl]  0.913
63. C=C1C[C@@]23CC[C@H]4[C@@](C)(CCC[C@@]4(C)C(=O)O[C@@H]4O[C@H](CO)[C@@H](O)[C@H](O)[C@H]4O)[C@@H]2CC[C@]1(O[C@@H]1O[C@H](CO)[C@@H](O)[C@H](O)[C@H]1O[C@@H]1O[C@H](CO)[C@@H](O)[C@H](O)[C@H]1O)C3 [Stevioside]  0.911
64. CC1(COc2ccc3c(c2)ncn3-c2ccc3cccc(N4CCC(N)CC4)c3n2)COC1 [Crenolanib]  0.91
65. O.O.O.O.O=C([O-])CC(O)(CC(=O)[O-])C(=O)[O-].[Li+].[Li+].[Li+] [Lithium citrate tribasic tetrahydrate]  0.908
66. O=C(COc1ccc(Cl)cc1)NC1CCC(NC(=O)COc2ccc(Cl)cc2)CC1 (stereo not drawn) [ISRIB (trans-isomer)]  0.899
67. COc1ccc(S(=O)(=O)Nc2nc(-c3cccc([N+](=O)[O-])c3)cs2)cc1OC  0.898
68. C=CC(=O)Nc1cccc(Nc2nc(Nc3ccc(N4CCN(C(C)=O)CC4)cc3OC)ncc2C(F)(F)F)c1 [Rociletinib]  0.896
69. CCOC(=O)[C@H](CCc1ccccc1)N[C@@H](C)C(=O)N1[C@H](C(=O)O)C[C@@H]2CCC[C@@H]21 [Ramipril]  0.894
70. Nc1c(Br)cc(Br)cc1CN[C@H]1CC[C@H](O)CC1 [Ambroxol]  0.894
71. NCC(=O)Nc1ccc(-n2nc(C(F)(F)F)cc2-c2ccc3c(ccc4ccccc43)c2)cc1  0.891
72. CN(C(=O)c1ccc(F)cc1C(F)(F)F)C1CCN(c2nnc(-c3ccnn3C)c3ccccc23)CC1 [Taladegib]  0.874
73. CC(C)(C)C(=O)OCOP(=O)(COCCn1cnc2c(N)ncnc21)OCOC(=O)C(C)(C)C [Adefovir dipivoxil]  0.869
74. CN1C(C(=O)Nc2ccccn2)=C(O)c2sccc2S1(=O)=O [Tenoxicam]  0.864
75. Cc1cn([C@H]2C[C@H](F)[C@@H](CO)O2)c(=O)[nH]c1=O [3'-Deoxy-3'-fluorothymidine]  0.837
76. COC(=O)c1sccc1S(=O)(=O)Nc1ccc(Nc2ccccc2)cc1OC  0.835
77. CS(=O)(=O)CCNCc1ccc(-c2ccc3ncnc(Nc4ccc(OCc5cccc(F)c5)c(Cl)c4)c3c2)o1 [Lapatinib Ditosylate]  0.796
78. CS(=O)(=O)CCNCc1ccc(-c2ccc3ncnc(Nc4ccc(OCc5cccc(F)c5)c(Cl)c4)c3c2)o1 [Lapatinib]  0.781
79. C[C@@H](Oc1cc(-n2cnc3ccc(CN4CCN(C)CC4)cc32)sc1C(N)=O)c1ccccc1C(F)(F)F  0.692
80. C/C=C1\NC(=O)[C@H]2CSSCC/C=C/[C@H](CC(=O)N[C@H](C(C)C)C(=O)N2)OC(=O)[C@H](C(C)C)NC1=O [Romidepsin]  0.116
